Reference: the supplement of paper PMC9912026
The source gives many values for each of these; only a part stands here.

Tested on: A375_Cra_F7_5/13
Experiment: pERK immunofluorescence, normalised; higher = more ERK phosphorylation
Settings: vemurafenib 1 µM, drug treatment time 24 h
Method: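 A375 or A375 CRISPRa-EGFR (A375_Cra_F7_5/13) cells were adapted for 24 h to a cobimetinib dose series, with or without 1 uM vemurafenib, then stimulated with EGF (100 ng/mL) or mock medium and fixed at the indicated times. pERK was measured by immunofluorescence as the population mean normalised to baseline, with the SD of technical replicates (n=2).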

O=C(c1ccc(F)c(F)c1Nc1ccc(I)cc1F)N1CC(O)([C@@H]2CCCCN2)C1 [cobimetinib]
pERK immunofluorescence
Settings	cobimetinib 31.62 pM	cobimetinib 0.0001 µM	cobimetinib 0.000316228 µM	cobimetinib 0.001 µM	cobimetinib 0.003162278 µM	cobimetinib 0.01 µM	cobimetinib 0.031622777 µM	cobimetinib 0.1 µM	cobimetinib 0.316227766 µM	cobimetinib 1 µM
EGF 0 ng/mL, time after EGF/mock 0.083 h	0.226	0.226	0.221	0.192	0.175	0.1338	0.115	0.104	0.0994	0.0994
EGF 0 ng/mL, time after EGF/mock 0.5 h	0.232	0.228	0.222	0.21	0.176	0.182	0.162	0.12	0.09439	0.09596
EGF 0 ng/mL, time after EGF/mock 2 h	0.184	0.189	0.1813	0.161	0.147	0.124	0.1133	0.103	0.09944	0.09921
EGF 0 ng/mL, time after EGF/mock 8 h	0.1451	0.15	0.149	0.126	0.113	0.103	0.0871	0.08363	0.0835	0.082095
EGF 0 ng/mL, time after EGF/mock 24 h	0.149	0.14	0.147	0.13839	0.124	0.125	0.104	0.0978	0.0856	0.08216
EGF 100 ng/mL, time after EGF/mock 0.083 h	1.36	1.35	1.27	1.313	1.319	1.24	1.06	0.71	0.189	0.11
EGF 100 ng/mL, time after EGF/mock 0.5 h	1.27	1.21	1.274	1.23	1.268	1.25	1.16	0.953	0.6	0.142
EGF 100 ng/mL, time after EGF/mock 2 h	0.796	0.8007	0.783	0.7981	0.775	0.697	0.617	0.474	0.271	0.1223
EGF 100 ng/mL, time after EGF/mock 8 h	0.604	0.581	0.5787	0.566	0.5479	0.4851	0.421	0.2992	0.161	0.0943
EGF 100 ng/mL, time after EGF/mock 24 h	0.761	0.728	0.732	0.7417	0.695	0.6199	0.526	0.377	0.186	0.0932
